Measured values reported in PubChem BioAssay AID2147 (National Center for Advancing Translational Sciences (NCATS), 2009).
Where “and” joins values, the source holds several entries; their conditions need not be identical. Equal entries are not always repeated. Screen size: about 230,000 compounds; about 3,600 (1.6%) were called active. Inconclusive results, whose numbers are uncertain, are shown with a selection of clear calls. Calls come from the whole dose curve; as a rule, active = well fitted inhibition curve with a large enough effect (not every such curve was filed as active); inconclusive = small, poorly fitted or top-dose-only effect, or another doubt; inactive = no such curve, though single readings can be large or run the other way. Potencies beside an inconclusive call are fits to weak or partial responses and may not hold up. Where a structure was tested more than once in an assay, its records may differ in their call.
Note: nearly all actives have a fitted effect of over 50% in size.
Potency is the fitted concentration of half-maximal effect; tags give direction and shape of the fitted curve.
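Throughout, for activity change, negative = inhibition: 0% = wells with enzyme and -100% = buffer wells without enzyme.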

These compounds were tested against Lysine-specific demethylase 4E (Homo sapiens) (UniProt B2RXH2) (assay: qHTS Assay for Inhibitors of Human Jumonji Domain Containing 2E (JMJD2E)). Conditions: JMJD2E catalytic domain, FDH-coupled NADH fluorescence (FDH is formaldehyde dehydrogenase); series mostly up to 57.1 µM; activity change, negative = inhibition: at the top concentration.
Chain of UniProt B2RXH2 (B2RXH2 whole entry, looked up, the tested form may be a part): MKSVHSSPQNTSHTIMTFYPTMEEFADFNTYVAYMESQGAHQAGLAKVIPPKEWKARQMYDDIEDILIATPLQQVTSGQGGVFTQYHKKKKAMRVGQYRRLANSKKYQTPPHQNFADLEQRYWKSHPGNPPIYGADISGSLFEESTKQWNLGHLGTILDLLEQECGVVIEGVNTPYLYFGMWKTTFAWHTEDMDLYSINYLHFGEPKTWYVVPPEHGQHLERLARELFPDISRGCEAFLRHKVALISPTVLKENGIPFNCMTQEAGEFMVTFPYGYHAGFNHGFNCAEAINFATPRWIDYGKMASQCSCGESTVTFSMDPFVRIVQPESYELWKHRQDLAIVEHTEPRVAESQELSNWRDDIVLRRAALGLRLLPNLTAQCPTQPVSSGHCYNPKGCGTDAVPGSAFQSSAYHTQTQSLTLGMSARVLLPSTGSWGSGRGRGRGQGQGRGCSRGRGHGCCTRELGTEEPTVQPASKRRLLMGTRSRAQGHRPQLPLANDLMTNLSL
For COc1cc2c(cc1NC(=S)NC(=O)/C=C/c1ccc(OC)c(OC)c1)oc1ccccc12, the Potency was inconclusive: 31.6 µM [inhibitor, partial curve].
In the case of Cc1cccc(C)c1NC(=S)Nc1ccccc1C(=O)NCc1ccco1, the Potency is reported as inconclusive: 31.6 µM [inhibitor, partial curve].
In the case of CCC(=O)Nc1ccc(N2CCOCC2)c(S(=O)(=O)Nc2ccc(OC)cc2)c1, the “activity change, negative = inhibition” value is reported as inactive: -2.11%.
In the case of c1ccc2c(c1)NC1(CCCCCC1)n1c-2nc2ccccc21, the Potency is reported as inconclusive: 25.1 µM [inhibitor, partial curve].
N#CCc1ccc(C(=O)c2ccccc2F)s1 was tested, and the “activity change, negative = inhibition” value was inactive: -20.3%.
For COc1ccc(NC(=O)Cn2nnc(-c3ccccc3NC(=O)c3cccs3)n2)cc1, the “activity change, negative = inhibition” value was inactive: -12.8%.
For COc1cccc(-c2cc(C(F)(F)F)n3nc(N)nc3n2)c1, the Potency was inconclusive: 31.6 µM [inhibitor, partial curve].
In the case of CC(=O)Nn1cc2c(c1-c1ccccc1)c(=O)n(C)c(=O)n2C, the Potency is reported as inconclusive: 35.5 µM [inhibitor, single point].
For Cc1[nH]n(-c2ccccc2)c(=O)c1C(C[N+](=O)[O-])c1ccc(Br)cc1 (centres undefined), the Potency was inconclusive: 4.47 µM [inhibitor, full curve].
Cc1ccc(Oc2nc3c(C)cccn3c(=O)c2/C=C(\C#N)C(N)=O)cc1 was tested, and the Potency was inconclusive: 17.8 µM [inhibitor, partial curve].
O=c1[nH]c(/C=C2\C=Nc3ccccc32)c(O)n1Cc1ccccc1F was tested, and the Potency was inconclusive: 25.1 µM [inhibitor, single point].
With CC(C)(C)n1cnnc1Sc1ncccc1[N+](=O)[O-] the “activity change, negative = inhibition” value was inactive: 13.5%.
With O=C(O)c1ccc(/C=N/NC(=O)c2ccc(CN3c4cccc5cccc(c45)S3(=O)=O)cc2)cc1 the Potency was inconclusive: 28.2 µM [inhibitor, partial curve].
With c1csc(-c2nn3c(C4COc5ccccc5O4)nnc3s2)c1 (centres undefined) the Potency was active: 31.6 µM.
With OCc1cn(-c2ccccc2)nc1-c1ccc(-c2nn(-c3ccccc3)cc2CO)cc1 the Potency was inconclusive: 25.1 µM [inhibitor, partial curve].
O=C(OCCN(C1=NS(=O)(=O)c2ccccc21)c1ccccc1Cl)c1ccc(Cl)cc1 was tested, and the Potency was inconclusive: 39.8 µM [inhibitor, single point].
With CC(C)=C1C2CCC1C1C(=O)N(c3ccc4c(c3)OCO4)C(=O)C21 (centres undefined) the “activity change, negative = inhibition” value was inactive: 5.72%.
For CCCCCCCCCCCC1=C(O)C(=O)C=C(O)C1=O, the Potency was active: 4.47 µM and active: 20 µM.
With CN(CCO)c1nc(N)c2c(N)nc3c(c2c1C#N)CC(=O)N3C1CCCC1 the Potency was inconclusive: 1.78 µM [inhibitor, partial curve].
In the case of O=C(COC(=O)c1ccc(Cl)c(S(=O)(=O)N2CCc3ccccc3C2)c1)Nc1ncc(Cl)cc1Cl, the Potency is reported as inconclusive: 31.6 µM [inhibitor, single point].
In the case of O=C1c2cccc3cc([N+](=O)[O-])cc(c23)C(=O)N1CCN1CCCC1, the Potency is reported as inconclusive: 22.4 µM [inhibitor, single point].
With O=C(O)c1ccccc1NN=C1CCCCC1 the Potency was inconclusive: 39.8 µM [inhibitor, single point].
For COc1ccc2nc3oc(C(=O)N4CCCCC4)cc3cc2c1, the Potency was inconclusive: 31.6 µM [inhibitor, partial curve].
With COc1ccc2cc(CCNC(=O)c3c(-c4ccccc4Cl)noc3C)c(=O)[nH]c2c1 the Potency was inconclusive: 35.5 µM [inhibitor, single point].
In the case of O=C(Cc1ccc(F)cc1)OCC(=O)c1cc2ccccc2o1, the “activity change, negative = inhibition” value is reported as inactive: -24.6%.
Cc1cc(C)c2c(N)c(C(=O)NN3CC(=O)N(c4ccccc4)CC3=O)sc2n1 was tested, and the Potency was inconclusive: 35.5 µM [inhibitor, single point].
For Cc1cc2oc(=O)cc(C)c2cc1NC(=O)CCC(=O)O, the Potency was inconclusive: 31.6 µM [inhibitor, partial curve].
For N#CC1C(C#N)N2CCCN2C1c1ccc(Br)cc1 (centres undefined), the Potency was inconclusive: 8.91 µM [inhibitor, partial curve].
COc1ccc(-c2cc3ccccc3n2CC(O)CNCCO)cc1 (centres undefined) was tested, and the Potency was inconclusive: 31.6 µM [inhibitor, partial curve].
With O=C(c1cc([N+](=O)[O-])ccc1N1CCCCC1)N1CCCCC1 the “activity change, negative = inhibition” value was inactive: -2.89%.
With O=C(NCc1ccccc1)C1=C[C@H](C2CCCCC2)C[C@H](OCc2ccc(CO)cc2)O1 the “activity change, negative = inhibition” value was inactive: -11.8%.
CC(C)NS(=O)(=O)c1ccc2c3c(cccc13)CC2 was tested, and the Potency was inconclusive: 28.2 µM [inhibitor, partial curve].
With CC(=O)Nc1ccc(S(=O)(=O)Nc2cc(C)ccn2)cc1 the Potency was inconclusive: 28.2 µM [inhibitor, partial curve].
O=c1c2oc3nc4c(cc3c2ncn1CCCc1ccccc1)CCCC4 was tested, and the Potency was inconclusive: 35.5 µM [inhibitor, single point].
In the case of COc1ccc(CNc2ncnc3c2[nH]c2ccccc23)cc1, the Potency is reported as inconclusive: 20 µM [inhibitor, partial curve].
Cc1nnc(C)c2c(C)n(N)c(C)c12 was tested, and the Potency was inconclusive: 35.5 µM [inhibitor, single point].
For C/C(CC(=O)NCc1ccco1)=N\NC(=O)Cc1cccc2ccccc12, the “activity change, negative = inhibition” value was inactive: 8.4%.
In the case of COc1ccc2cc3c(N)nn(C(=O)c4ccc(F)cc4)c3nc2c1, the Potency is reported as inconclusive: 39.8 µM [inhibitor, single point].
With CCCCNc1nc(C)nc2c1nc(-c1ccccc1)n2CCCN(CC)CC the Potency was inconclusive: 28.2 µM [inhibitor, partial curve].
For NCCCC(N)(C(=O)O)C(F)F (centres undefined), the Potency was inconclusive: 12.6 µM [inhibitor, partial curve].
COc1cc(/C=N/c2oc(-c3ccccc3)cc2C#N)ccc1O was tested, and the Potency was inconclusive: 25.1 µM [inhibitor, partial curve].
With Cc1ccc(/C=[N+](\[O-])c2ccc(N(C)C)cc2)c2nsnc12 the Potency was active: 14.1 µM.
CC(=O)N=c1c(C#N)cc2c(=O)n3cccc(C)c3nc2n1Cc1ccco1 was tested, and the Potency was inconclusive: 25.1 µM [inhibitor, partial curve].
COc1cccc2c(SCC(=O)N/N=C/c3ccc(O)c(O)c3)cc(C)nc12 was tested, and the Potency was active: 15.8 µM.
For COc1cc2c(cc1OC)C1(C)N(CC2)C(C(C)=O)=NN1c1ccc(Cl)cc1 (centres undefined), the Potency was inconclusive: 6.31 µM [inhibitor, full curve].
With Cn1nnnc1SCc1cc(=O)n2ccsc2n1 the “activity change, negative = inhibition” value was inactive: 2.03%.
O=S(=O)(Nc1nc2ccccc2nc1N1CCc2ccccc2C1)c1ccc(Br)cc1 was tested, and the Potency was inconclusive: 6.31 µM [inhibitor, single point].
With CCOC(=O)c1[nH]c2ccc(F)cc2c1NC(=O)C(C)N1CCc2cc(OC)c(OC)cc2C1 (centres undefined) the Potency was inconclusive: 31.6 µM [inhibitor, partial curve].
In the case of O=C(/C=C/NNC(=O)c1ccccc1)c1ccccc1, the Potency is reported as inconclusive: 35.5 µM [inhibitor, single point].
With Oc1ccc(/C=C/c2nc(-c3ccccc3O)n(-c3ccccc3)n2)cc1 the Potency was inconclusive: 39.8 µM [inhibitor, single point].
With O=C(CCN1CCCCC1)NNC(=O)C12CC3CC(CC(C3)C1)C2 the Potency was inconclusive: 31.6 µM [inhibitor, single point].
With O=C(Cc1ccc(Cl)cc1)Nc1cccc(S(=O)(=O)Nc2ccccc2F)c1 the “activity change, negative = inhibition” value was inactive: 2.51%.
CCNC(=S)N1CCN(S(=O)(=O)c2ccc(C)c(C)c2)CC1 was tested, and the Potency was inconclusive: 31.6 µM [inhibitor, partial curve].
With O=S(=O)(NCc1ccco1)c1ccc2c(c1)Cc1ccccc1-2 the Potency was inconclusive: 39.8 µM [inhibitor, single point].
For CN(C)c1ccc(CNC(=O)[C@@]2(C)C=C[C@@H](Cc3ccccc3)N2C)cc1, the Potency was inconclusive: 39.8 µM [inhibitor, single point].
In the case of Cc1cc([N+](=O)[O-])nn1CC(=O)N/N=C/c1ccccc1O, the Potency is reported as active: 7.94 µM.
In the case of CCN1CCN(CCCCOc2ccccc2F)CC1, the Potency is reported as inconclusive: 25.1 µM [inhibitor, single point].
With COc1ccc(OC)c(CCNC(=O)CSc2ccsc2[N+](=O)[O-])c1 the “activity change, negative = inhibition” value was inactive: 16.8%.
In the case of O=C(NCc1ccccn1)C1CCN(Cc2cccc(OCc3ccccc3)c2)CC1, the Potency is reported as inconclusive: 39.8 µM [inhibitor, single point].
In the case of CC(=O)Nc1ccc(S(=O)(=O)NC2=C(N3CCN(c4ccc(F)cc4)CC3)C(=O)c3ccccc3C2=O)cc1, the Potency is reported as inconclusive: 2.82 µM [inhibitor, full curve, poor fit].
For COc1ccccc1NC(=O)CN1CCN(c2ccccn2)CC1, the “activity change, negative = inhibition” value was inactive: -7.84%.
With CCOC(=O)C1=C(C)NC(C)=C(C(=O)OCC)C1 the Potency was inconclusive: 35.5 µM [inhibitor, partial curve].
In the case of NNc1nc2c(-c3ccc(Cl)cc3)nnn2c2ccccc12, the Potency is reported as inconclusive: 4.47 µM [inhibitor, full curve].
In the case of Cc1ccc(/C=C2\Oc3c(ccc(O)c3CN3CCN(CCO)CC3)C2=O)cc1, the Potency is reported as inconclusive: 28.2 µM [inhibitor, partial curve].
COc1cc2ncnc(NCc3ccc(C)o3)c2cc1OC was tested, and the “activity change, negative = inhibition” value was inactive: -26.5%.
With CC(=O)Oc1ccc2c(=O)c(N3C(=O)c4ccccc4C3=O)c(C)oc2c1 the “activity change, negative = inhibition” value was inactive: -7.2%.
For COc1ccc(-c2c3c(=O)n(C)c(=O)n(C)c3cn2N2CCOCC2)cc1, the Potency was inconclusive: 39.8 µM [inhibitor, single point].
In the case of O=c1cc(CSc2nnnn2-c2ccccc2)nc2scc(-c3ccccc3)n12, the Potency is reported as inconclusive: 39.8 µM [inhibitor, single point].
With Cc1cc(SCC(=O)c2ccccc2)n2ncc(-c3ccccc3)c2n1 the Potency was inconclusive: 3.55 µM [inhibitor, partial curve].
